The results in this text go back to paper PMC6919601, “Identification of Plasmodium dipeptidyl aminopeptidase allosteric inhibitors by high throughput screening” (PLoS ONE, 2019).

Among all 110,000 compounds or so, about 230 (0.21%) showed an effect of 50% or more. Some of the results follow.
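Note: 30 min substrate incubation versus DMSO and 10 µM JCP410 controls.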

The target in the test is DPAP1 (Plasmodium falciparum, UniProt Q8IIJ9). Briefly: primary screen, percent inhibition; read by cleavage of a fluorogenic dipeptide substrate; higher = more effect of the substance. Also noted: species or system P. falciparum D10 trophozoite lysates; single well.
Chain of DPAP1 (Q8IIJ9 whole entry, looked up): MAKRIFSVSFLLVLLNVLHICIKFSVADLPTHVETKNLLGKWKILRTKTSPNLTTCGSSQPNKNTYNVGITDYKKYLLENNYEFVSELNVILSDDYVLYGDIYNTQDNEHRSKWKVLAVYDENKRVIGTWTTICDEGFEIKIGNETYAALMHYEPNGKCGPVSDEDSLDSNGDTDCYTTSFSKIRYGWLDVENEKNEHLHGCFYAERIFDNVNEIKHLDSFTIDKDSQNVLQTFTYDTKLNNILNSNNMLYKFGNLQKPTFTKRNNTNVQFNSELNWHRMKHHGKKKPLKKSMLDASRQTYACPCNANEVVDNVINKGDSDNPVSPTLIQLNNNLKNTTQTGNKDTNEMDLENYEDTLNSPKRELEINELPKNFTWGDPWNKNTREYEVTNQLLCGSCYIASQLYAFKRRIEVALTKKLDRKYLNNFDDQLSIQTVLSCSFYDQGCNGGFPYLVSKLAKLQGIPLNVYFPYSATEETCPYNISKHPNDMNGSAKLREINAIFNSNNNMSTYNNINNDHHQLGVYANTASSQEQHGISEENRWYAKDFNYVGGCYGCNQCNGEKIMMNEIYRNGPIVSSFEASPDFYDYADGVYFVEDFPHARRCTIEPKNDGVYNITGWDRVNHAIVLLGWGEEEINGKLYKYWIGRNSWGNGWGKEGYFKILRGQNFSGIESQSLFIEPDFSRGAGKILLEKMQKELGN
For `O=C(CCS(=O)(=O)c1cccc2nsnc12)N1CCN(Cc2ccc3c(c2)OCO3)CC1`, the “% Inhibition @ 10 uM” value is reported as 2.84%.

For `FC(F)(F)c1cc(-c2cccs2)nc(N2CCN(Cc3ccccc3)CC2)n1`, the “% Inhibition @ 10 uM” value was -2.12%.

With `CC(C)Nc1nc(OC(C(F)(F)F)C(F)(F)F)nc(N(c2ccccc2)c2ccccc2)n1`, the “% Inhibition @ 10 uM” value worked out at 4.22%.

For `Cc1cccc(OCC(=O)N(Cc2ccc(Cl)cc2)C2CCS(=O)(=O)C2)c1C` (stereo not shown), the “% Inhibition @ 10 uM” value is recorded as -2.98%.

Turning to `O=C(O)c1ccc(-n2cc(Br)cn2)cc1`, the “% Inhibition @ 10 uM” value is reported as -4.04%.

Take `C=CCn1c(-c2nonc2NC(=O)c2ccccc2Cl)nc2ccccc21`: the “% Inhibition @ 10 uM” value was 3.84%.

Turning to `O=C(CN1CCCCCC1)Nc1c2c(nc3c1CCC3)CCCC2`, the “% Inhibition @ 10 uM” value is given as -2.65%.

For the compound `Cc1ccc(/C=C(\NC(=O)c2ccccc2)C(=O)NCC2CCCO2)o1` (stereo not shown), the “% Inhibition @ 10 uM” value is given as 4.13%.

Turning to `CC1=C(C#N)C(c2ccccc2Cl)C2=C(O)CC(c3ccccc3)CC2=N1` (stereo not shown), the “% Inhibition @ 10 uM” value is 4%.

Take `CCN(CC)c1ccc(NC(=O)C2CCCC2)c(C)c1`: the “% Inhibition @ 10 uM” value stood at 2.64%.

Regarding `O=C(c1ccccc1F)N1CCN(C2CC(=O)N(c3ccc(F)cc3)C2=O)CC1` (stereo not shown), the “% Inhibition @ 10 uM” value came to 0.727%.

Regarding `Cc1nn(C)cc1C(C)NC(=O)c1c(Cl)c(C)nn1C` (stereo not shown), the “% Inhibition @ 10 uM” value is recorded as -2.77%.

Consider `Oc1ncnc2sc3c(c12)CCC3`, for which the “% Inhibition @ 10 uM” value was -2.59%.

On to `Cc1nc2nc(Cc3ccccc3)nn2c(O)c1C`, for which the “% Inhibition @ 10 uM” value came to 1%.

Consider `O=C(CN1C(=O)S/C(=C/c2cccc(Cl)c2)C1=O)Nc1ccc(F)cc1`, for which the “% Inhibition @ 10 uM” value turned out to be 0.313%.

As for `CC(C)c1ccc(OCC(=O)Nc2cccc3c2C(=O)NC3=O)cc1`, the “% Inhibition @ 10 uM” value was -1.22%.

On to `O=c1c(Cc2ccccc2O)c(O)nc2n1CCCS2`, for which the “% Inhibition @ 10 uM” value is recorded as -0.495%.

With `O=C(CCN1CCN(CCO)CC1)Nc1cccc(Cl)c1`, the “% Inhibition @ 10 uM” value stood at 3.21%.

In the case of `COCCNC(=O)Nc1cnc2c(OC)cccc2c1O`, the “% Inhibition @ 10 uM” value is listed as -5.15%.

As to `O=C(CSc1nc2nccnc2c(=O)n1CCc1c[nH]c2ccccc12)NCCc1ccccc1`, the “% Inhibition @ 10 uM” value is 1.96%.

Regarding `COc1cccc(-c2nnc3sc(NC(=O)C4CCCCC4)nn23)c1`, the “% Inhibition @ 10 uM” value was -2.48%.

Turning to `O=C(Nc1ccc(Cl)c(Cl)c1)c1ccc(-c2ccccc2)cc1`, the “% Inhibition @ 10 uM” value is -3.77%.

As for `Cc1cccc(NC(=O)Nc2cn(C)c(=O)c3ccccc23)n1`, the “% Inhibition @ 10 uM” value turned out to be 0.745%.

Consider `CC(CNC(=O)c1nnc(-c2cccc(Cl)c2)o1)c1ccccc1` (stereo not shown), for which the “% Inhibition @ 10 uM” value is reported as -6.82%.

For the compound `CCc1nnc2c(NCCc3ccccc3)nc3ccccc3n12`, the “% Inhibition @ 10 uM” value is reported as -4.47%.

Consider `COc1cccc(C2C(C#N)=C(N)OC3=C2C(=O)CCC3)c1` (stereo not shown), for which the “% Inhibition @ 10 uM” value is reported as -1.08%.

As for `O=C(Nc1cccc2ccccc12)c1ccccc1C(=O)Nc1cccc2ccccc12`, the “% Inhibition @ 10 uM” value is given as -3.65%.

Consider `O=C(C1=C(O)C(=O)N(c2nccs2)C1c1ccc(Cl)cc1)c1ccccc1` (stereo not shown), for which the “% Inhibition @ 10 uM” value is -2.98%.
